Some of the results follow. The full chains were built here from the parent and the listed change. Inactive controls read about 0.05.
B1: TEV protease; numbered along this chain (parent)
chain: MGESLFKGPRDYNPISSSICHLTNESDGHTTSLYGIGFGPFIITNKHLFRRNNGTLVVQSLHGVFKVKDTTTLQQHLVDGRDMIIIRMPKDFPPFPQKLKFREPQREERICLVTTNFQTKSMSSMVSDTSCTFPSGDGIFWKHWIQTKDGQCGSPLVSTRDGFIVGIHSASNFTNTNNYFTSVPKNFMELLTNQEAQQWVSGWRLNADSVLWGGHKVFMVKPEEPFQPVKEATQL

Variants of: B1
Experiment: raw area under fraction-flipped curve 0-4 h after induction (AUC4h, not background-subtracted), DNA-recorder readout of cleavage of the substrate (dimensionless); higher = more cleavage of the substrate by the protease variant
Details: temperature: 34 °C; time window: 0-4 h after rhamnose induction
Description: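 In vivo DNA recorder in E. coli TOP10(DE3) ΔrhaA at 34 °C. Each TEVp single-site mutant (parent TEVp 0) is paired with a single-site variant of the 7-mer TEVs (canonical ENLYFQ|S). The substrate sits between flexible linkers in a Bxb1-sfGFP-TEVs-SsrA fusion, so cleavage stabilises Bxb1 and speeds flipping of a recombination array, read by NGS. The value is the raw area under the fraction-flipped curve over 0-4 h after rhamnose induction (AUC4h), with ≥20 reads per time point. It is not background-subtracted; inactive controls average about 0.047.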
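Also: Bxb1 expression induced with 0.2% (w/v) L-rhamnose at OD600 near 0.5, cultures sampled hourly, flipped fraction per protease–substrate barcode pair counted by paired-end Illumina sequencing.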

Variant | area with substrate ENLCFQS | area with substrate ENLDFQS | area with substrate ENLEFQS | area with substrate ENLFFQS | area with substrate ENLGFQS | area with substrate ENLHFQS | area with substrate ENLKFQS | area with substrate ENLLFQS | area with substrate ENLMFQS | area with substrate ENLNFQS | area with substrate ENLPFQS | area with substrate ENLQFQS | area with substrate ENLRFQS | area with substrate ENLSFQS | area with substrate ENLTFQS | area with substrate ENLVFQS | area with substrate ENLAFQS | area with substrate ENLIFQS | area with substrate ENLWFQS
MGESLFKGPRDYNPISSLICHLTNESDGHTTSLYGIGFGPFIITNKHLFRRNNGTLVVQSLHGVFKVKDTTTLQQHLVDGRDMIIIRMPKDFPPFPQKLKFREPQREERICLVTTNFQTKSMSSMVSDTSCTFPSGDGIFWKHWIQTKDGQCGSPLVSTRDGFIVGIHSASNFTNTNNYFTSVPKNFMELLTNQEAQQWVSGWRLNADSVLWGGHKVFMVKPEEPFQPVKEATQL [S18L] | 0.0733 | 0.0545 | 0.0589 | 0.0821 | 0.0714 | 0.0809 | 0.0858 | 0.0666 | 0.0508 | 0.0591 | 0.0794 | 0.0532 | 0.0695 | 0.066 | 0.0701 | 0.0903 |  |  | 
MGESLFKGPRDYNPISSSICHLTNESDGHTTSLYGIGFGPFIITNKHLFRRNNGTLVVQSLHGVFKVKDTTTLQQHLVDGRDMIIIRMPKDFPPFPQKLKFREPQREERICLVTTNFQTKSMSSMVSDTSCTFPSGDGIFWKHWIQTKDGQCGSPLVSTRDGFIVGIHSASNFTNTNNYFTSVPKNFMELLTNQEAQQWVSGWRLNADSVLWGGHKVFMVKPEEPFQPVKEATRL [Q234R] | 0.0844 | 0.0382 |  | 0.0855 | 0.0573 | 0.0526 | 0.0657 | 0.0855 |  | 0.0725 | 0.0546 |  | 0.0513 | 0.0854 |  |  | 0.0696 | 0.118 | 0.0566
MGESLFKGPRDYNPISSSICHLTNESDGHTTSLYGIGFGPFIITNKHLFRRNNGTLVVQSLHGVFKVKDTTTLQQHLVDGRDMIIIRMPKDFPPFPQKLKFREPQREERICLVTTNFQTKSMSSMVSDTSCTFPSGDGIFWKHWIQTKDGQCGSPLVSTRDGFIVGIHSASNFTNTNNYFTSVPKNFMELLTNQEAQQWVSGWRLNADSVLWGGHKVFMVKPREPFQPVKEATQL [E223R] | 0.0681 | 0.0575 | 0.0662 |  |  | 0.0694 | 0.0774 | 0.0655 |  | 0.0585 | 0.0471 | 0.0721 | 0.082 | 0.0466 |  | 0.0848 | 0.0706 | 0.087 | 0.0697
MGESLFKVPRDYNPISSSICHLTNESDGHTTSLYGIGFGPFIITNKHLFRRNNGTLVVQSLHGVFKVKDTTTLQQHLVDGRDMIIIRMPKDFPPFPQKLKFREPQREERICLVTTNFQTKSMSSMVSDTSCTFPSGDGIFWKHWIQTKDGQCGSPLVSTRDGFIVGIHSASNFTNTNNYFTSVPKNFMELLTNQEAQQWVSGWRLNADSVLWGGHKVFMVKPEEPFQPVKEATQL [G8V] | 0.0657 | 0.0755 |  |  |  |  |  |  |  |  |  |  |  | 0.0847 |  |  |  |  | 
MGESLFKGGRDYNPISSSICHLTNESDGHTTSLYGIGFGPFIITNKHLFRRNNGTLVVQSLHGVFKVKDTTTLQQHLVDGRDMIIIRMPKDFPPFPQKLKFREPQREERICLVTTNFQTKSMSSMVSDTSCTFPSGDGIFWKHWIQTKDGQCGSPLVSTRDGFIVGIHSASNFTNTNNYFTSVPKNFMELLTNQEAQQWVSGWRLNADSVLWGGHKVFMVKPEEPFQPVKEATQL [P9G] | 0.0497 | 0.0518 |  | 0.089 |  | 0.104 |  |  | 0.0768 |  | 0.0596 | 0.0384 |  | 0.0568 |  |  |  | 0.0835 | 0.0664
MGESLFKGPRDYNSISSSICHLTNESDGHTTSLYGIGFGPFIITNKHLFRRNNGTLVVQSLHGVFKVKDTTTLQQHLVDGRDMIIIRMPKDFPPFPQKLKFREPQREERICLVTTNFQTKSMSSMVSDTSCTFPSGDGIFWKHWIQTKDGQCGSPLVSTRDGFIVGIHSASNFTNTNNYFTSVPKNFMELLTNQEAQQWVSGWRLNADSVLWGGHKVFMVKPEEPFQPVKEATQL [P14S] | 0.0688 | 0.0681 | 0.0583 | 0.0955 |  | 0.0655 | 0.0825 | 0.0694 |  | 0.0744 | 0.058 | 0.0986 | 0.0751 | 0.0748 | 0.0685 |  |  | 0.088 | 0.0658
MGESLFKGPRDYNPISSSICHLTNESDGHTTSLYGIGFGPFIITNKHLFRRNNGTLVVQSLHGVFKVKDTTTLQQHLVDGRDMIIIRMPKDFPPFPQKLKFREPQREERICLVTTNFQTKSMSSMVSDTSCTFPSGDGIFWKHWIQTKDGQCGSPLVSTRDGFIVGIHSASNFTNTNNYFTSVPKNFMELLTNQEAQQWVSGWRLNADSVLWGGHKVFMVKYEEPFQPVKEATQL [P222Y] | 0.0864 | 0.0618 | 0.0707 | 0.0766 |  |  | 0.0509 |  |  | 0.0635 |  | 0.0636 |  |  | 0.0743 |  | 0.0669 | 0.0747 | 
MGESLFKGPRDYNPISSSECHLTNESDGHTTSLYGIGFGPFIITNKHLFRRNNGTLVVQSLHGVFKVKDTTTLQQHLVDGRDMIIIRMPKDFPPFPQKLKFREPQREERICLVTTNFQTKSMSSMVSDTSCTFPSGDGIFWKHWIQTKDGQCGSPLVSTRDGFIVGIHSASNFTNTNNYFTSVPKNFMELLTNQEAQQWVSGWRLNADSVLWGGHKVFMVKPEEPFQPVKEATQL [I19E] | 0.0438 | 0.0354 | 0.0482 | 0.0573 |  | 0.0382 | 0.062 | 0.0462 |  | 0.0272 |  | 0.0454 |  | 0.0531 |  |  |  | 0.0454 | 0.0436
MGESLFKGPRDYNPISLSICHLTNESDGHTTSLYGIGFGPFIITNKHLFRRNNGTLVVQSLHGVFKVKDTTTLQQHLVDGRDMIIIRMPKDFPPFPQKLKFREPQREERICLVTTNFQTKSMSSMVSDTSCTFPSGDGIFWKHWIQTKDGQCGSPLVSTRDGFIVGIHSASNFTNTNNYFTSVPKNFMELLTNQEAQQWVSGWRLNADSVLWGGHKVFMVKPEEPFQPVKEATQL [S17L] | 0.0773 | 0.0662 | 0.0536 | 0.0843 |  | 0.0666 | 0.105 | 0.072 |  | 0.051 | 0.0991 | 0.0627 | 0.0698 | 0.0739 | 0.0679 | 0.0987 |  | 0.101 | 0.0684

— the supplement of paper PMC12217912
